Measured values as given in a collection of fitness landscapes (doi:10.1016/j.celrep.2020.107928).
In all, about 81,000 sequences were measured (“one-hybrid fitness for binding NBS DNA”: median about -0.1, highest 2% from about 0.36 on). Some of the results follow.

B1: Caulobacter ParB omega fusion; a variant is named by its letters at X, in order, B8GW30 (parent)
chain: MESVVVGEPGMSEGRRGLGRGLSALLGEVDAAPAQAPGEQLGGSREAPIEILQRNPDQPRRTFREEDLEDLSNSIREKGVLQPILVRPSPDTAGEYQIVAGERAWRAAQRAGLKTVPIMVRELDDLAVLEIGIIENVQRADLNVLEEALSYKVLMEKFERTQENIAQTIGKSXSHVANXMRLLXLPDEVQSYLVSGELTAXHARAIAAAADPVALAKQIIEGGLSVRETEALARKAPNLSAGKSKGGRPPRVKDTDTQALESDLSSVLGLDVSIDHRGSTGTLTITYATLEQLDDLCNRLTRGI

Variants of: B1
Experiment: one-hybrid fitness for binding NBS DNA (the Noc-binding site; scaled: cognate 1, non-cognate 0); higher = stronger binding
Conditions: with NBS DNA site
In short: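 Bacterial one-hybrid selection in E. coli USO rpoZ- hisB- pyrF- with a HIS3 reporter carrying the site 19 bp from the promoter, screening Caulobacter ParB libraries with four specificity codons randomised (NNS). Cells grew 48 hours at 37°C on M9-minus-histidine plus 0.1 mM IPTG and 5 mM 3-AT. Plasmids before and after selection were Illumina-sequenced, three replicate libraries pooled, and variants under 10 reads dropped. Fitness is the log change in variant-to-wild-type read ratio, rescaled to cognate 1, non-cognate 0.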

Row | Variant | one-hybrid fitness for binding NBS DNA
1 | CRMY | ≤ 0.2
2 | NQPC | ≤ 0.2
3 | RYQY | ≤ 0.2
4 | RFEI | ≤ 0.2
5 | HDMT | ≤ 0.2
6 | SWGT | ≤ 0.2
7 | EVDK | ≤ 0.2
8 | TLRQ | ≤ 0.2
9 | HQDA | ≤ 0.2
10 | QNEI | ≤ 0.2
11 | RMAT | 0.426
12 | TDTG | ≤ 0.2
13 | EMSP | ≤ 0.2
14 | KNKR | ≤ 0.2
15 | PSQW | ≤ 0.2
16 | KHYS | ≤ 0.2
17 | QNIT | ≤ 0.2
18 | SSVC | ≤ 0.2
19 | QMAR | 0.602
20 | YYEK | ≤ 0.2
21 | NGKY | ≤ 0.2
22 | LNFP | ≤ 0.2
23 | QQSP | ≤ 0.2
24 | VPCS | ≤ 0.2

Row | Variant | one-hybrid fitness for binding NBS DNA
25 | ACGR | ≤ 0.2
26 | KTPQ | ≤ 0.2
27 | AALE | ≤ 0.2
28 | VRPG | ≤ 0.2
29 | QNKE | ≤ 0.2
30 | QAFD | ≤ 0.2
31 | TGAA | ≤ 0.2
32 | SYDD | ≤ 0.2
33 | QMPK | ≤ 0.2
34 | PYYT | ≤ 0.2
35 | TLAV | ≤ 0.2
36 | DWYT | ≤ 0.2
37 | RKFY | ≤ 0.2
38 | THCL | ≤ 0.2
39 | LFYC | ≤ 0.2
40 | RTIM | ≤ 0.2
41 | RRFQ | 0.267
42 | HVDN | ≤ 0.2
43 | GDTM | ≤ 0.2
44 | HDGG | ≤ 0.2
45 | VITF | ≤ 0.2
46 | GQAS | ≤ 0.2
47 | PDRG | ≤ 0.2
48 | RRIE | ≤ 0.2

Row | Variant | one-hybrid fitness for binding NBS DNA
49 | EPTH | ≤ 0.2
50 | VLVC | ≤ 0.2
51 | WAIG | ≤ 0.2
52 | WPEL | ≤ 0.2
53 | YPLV | ≤ 0.2
54 | MQFR | ≤ 0.2
55 | GVMD | ≤ 0.2
56 | MVFN | ≤ 0.2
57 | HRMV | ≤ 0.2
58 | QCCK | ≤ 0.2
59 | PHPN | ≤ 0.2
60 | DGIL | ≤ 0.2
61 | GFTR | ≤ 0.2
62 | TYHQ | ≤ 0.2
63 | LEYG | ≤ 0.2
64 | AIQR | ≤ 0.2
65 | RPEN | ≤ 0.2
66 | DKRV | ≤ 0.2
67 | NHQC | ≤ 0.2
68 | QRAR | 1.01
69 | IQIS | ≤ 0.2
70 | AHSS | ≤ 0.2
71 | YFHT | ≤ 0.2
72 | RGLL | ≤ 0.2

Row | Variant | one-hybrid fitness for binding NBS DNA
73 | KTFG | ≤ 0.2
74 | GYPL | ≤ 0.2
75 | TVDA | ≤ 0.2
76 | TFHM | ≤ 0.2
77 | ESFG | ≤ 0.2
78 | CAPN | ≤ 0.2
79 | ANQD | ≤ 0.2
80 | GQIV | ≤ 0.2
81 | NIWW | ≤ 0.2
82 | WASN | ≤ 0.2
83 | GNPF | ≤ 0.2
84 | AKLL | ≤ 0.2
85 | RMTH | ≤ 0.2
86 | CIMY | ≤ 0.2
87 | ANKY | ≤ 0.2
88 | CAAL | ≤ 0.2
89 | PLEV | ≤ 0.2
90 | RGAD | ≤ 0.2
91 | AEYS | ≤ 0.2
92 | CKTK | ≤ 0.2
93 | TLHY | ≤ 0.2
94 | IRPS | ≤ 0.2
95 | LASI | ≤ 0.2
96 | GDSG | ≤ 0.2

Row | Variant | one-hybrid fitness for binding NBS DNA
97 | ASWC | ≤ 0.2
98 | FTVV | ≤ 0.2
99 | RNNQ | ≤ 0.2
100 | QPRN | ≤ 0.2
101 | AGTV | ≤ 0.2
102 | RHTF | ≤ 0.2
103 | QEYG | ≤ 0.2
104 | TMDR | ≤ 0.2
105 | MICS | ≤ 0.2
106 | RCNI | ≤ 0.2
107 | GEYF | ≤ 0.2
108 | LDWC | ≤ 0.2
109 | QMPN | ≤ 0.2
110 | LPWR | ≤ 0.2
111 | RCLE | ≤ 0.2
112 | LMHM | ≤ 0.2
113 | RTFG | ≤ 0.2
114 | KVHS | ≤ 0.2
115 | FSRS | ≤ 0.2
116 | QIMW | ≤ 0.2
117 | HSGC | ≤ 0.2
118 | HKYK | ≤ 0.2
119 | HEHL | ≤ 0.2
120 | SMEC | ≤ 0.2

Row | Variant | one-hybrid fitness for binding NBS DNA
121 | HVFS | ≤ 0.2
122 | QTTF | ≤ 0.2
123 | DTQC | ≤ 0.2
124 | RNEP | ≤ 0.2
125 | AKEI | ≤ 0.2
126 | SVVL | ≤ 0.2
127 | GNCM | ≤ 0.2
128 | WPNN | ≤ 0.2
129 | TYVM | ≤ 0.2
130 | PNYH | ≤ 0.2
131 | QTRW | 0.417
132 | PNLF | ≤ 0.2
133 | AQKN | ≤ 0.2
134 | KWLM | ≤ 0.2
135 | EGSS | ≤ 0.2
136 | LYQG | ≤ 0.2
137 | QSFK | ≤ 0.2
138 | KKAG | ≤ 0.2
139 | PMFG | ≤ 0.2
140 | WRYY | ≤ 0.2
141 | VTSY | ≤ 0.2
142 | SYYK | ≤ 0.2
143 | FCMR | ≤ 0.2
144 | HVGV | ≤ 0.2

Row | Variant | one-hybrid fitness for binding NBS DNA
145 | AFST | ≤ 0.2
146 | VLRA | ≤ 0.2
147 | MNCR | ≤ 0.2
148 | ATLA | ≤ 0.2
149 | YSMS | ≤ 0.2
150 | RART | 0.621
151 | QMWI | ≤ 0.2
152 | HNLV | ≤ 0.2
153 | DEHC | ≤ 0.2
154 | MTSE | ≤ 0.2
155 | LLGH | ≤ 0.2
156 | ADKL | ≤ 0.2
157 | QNAF | ≤ 0.2
158 | QEQT | ≤ 0.2
159 | SRHE | ≤ 0.2
160 | PFYT | ≤ 0.2
161 | KPVK | ≤ 0.2
162 | RPLR | ≤ 0.2
163 | AMFG | ≤ 0.2
164 | RACK | ≤ 0.2
165 | RFLA | ≤ 0.2
166 | DSKV | ≤ 0.2
167 | QELT | ≤ 0.2
168 | WSTS | ≤ 0.2

Row | Variant | one-hybrid fitness for binding NBS DNA
169 | LTRH | ≤ 0.2
170 | SAIG | ≤ 0.2
171 | VTWW | ≤ 0.2
172 | ADTW | ≤ 0.2
173 | YVIV | ≤ 0.2
174 | AQGG | ≤ 0.2
175 | LDNV | ≤ 0.2
176 | TERC | ≤ 0.2
177 | ERNG | ≤ 0.2
178 | PRPD | ≤ 0.2
179 | YPCT | ≤ 0.2
180 | SHRC | ≤ 0.2
181 | QRNN | 0.459
182 | HKQG | ≤ 0.2
183 | AHTV | ≤ 0.2
184 | KPSK | ≤ 0.2
185 | RWDS | ≤ 0.2
186 | RYGA | ≤ 0.2
187 | TRWW | ≤ 0.2
188 | QLEP | ≤ 0.2
189 | APWM | ≤ 0.2
190 | QKWW | ≤ 0.2
191 | KTIR | ≤ 0.2
192 | RMME | ≤ 0.2

Row | Variant | one-hybrid fitness for binding NBS DNA
193 | YLIT | ≤ 0.2
194 | ARHR | ≤ 0.2
195 | HAFT | ≤ 0.2
196 | WIVR | ≤ 0.2
197 | MSTN | ≤ 0.2
198 | QSHY | 0.201
199 | RVQC | ≤ 0.2
200 | CVST | ≤ 0.2
201 | SLSA | ≤ 0.2
202 | LQLV | ≤ 0.2
203 | QDQD | ≤ 0.2
204 | GGSC | ≤ 0.2
205 | QGCV | ≤ 0.2
206 | GCRS | ≤ 0.2
207 | DARL | ≤ 0.2
208 | WYCF | ≤ 0.2
209 | HQRE | ≤ 0.2
210 | WILQ | ≤ 0.2
211 | AIWR | ≤ 0.2
212 | QKMM | ≤ 0.2
213 | HAHI | ≤ 0.2
214 | CCMS | ≤ 0.2
215 | ESHT | ≤ 0.2
216 | PQSM | ≤ 0.2

Row | Variant | one-hybrid fitness for binding NBS DNA
217 | DDCW | ≤ 0.2
218 | GHAN | ≤ 0.2
219 | APKL | ≤ 0.2
220 | TYKY | ≤ 0.2
221 | HMIG | ≤ 0.2
222 | QIVF | ≤ 0.2
223 | SMCV | ≤ 0.2
224 | IPGQ | ≤ 0.2
225 | TLYA | ≤ 0.2
226 | ATQY | ≤ 0.2
227 | AKPC | ≤ 0.2
228 | ATAM | ≤ 0.2
229 | PCRQ | ≤ 0.2
230 | NRRM | ≤ 0.2
231 | QQNS | 0.515
232 | LRVK | ≤ 0.2
233 | CSHD | ≤ 0.2
234 | CSCN | ≤ 0.2
235 | NWGR | ≤ 0.2
236 | DHWG | ≤ 0.2
237 | DWQS | ≤ 0.2
238 | EFRT | ≤ 0.2
239 | HGAV | ≤ 0.2
240 | PMIS | ≤ 0.2

Row | Variant | one-hybrid fitness for binding NBS DNA
241 | HVQW | ≤ 0.2
242 | SFQC | ≤ 0.2
243 | AVGY | ≤ 0.2
244 | RRIM | ≤ 0.2
245 | TSMG | ≤ 0.2
246 | IGYS | ≤ 0.2
247 | HSMD | ≤ 0.2
248 | QPMI | ≤ 0.2
249 | QWST | ≤ 0.2
250 | KLWL | ≤ 0.2
251 | YMVR | ≤ 0.2
252 | KRTM | ≤ 0.2
253 | KPGL | ≤ 0.2
254 | KIKT | ≤ 0.2
255 | HASL | ≤ 0.2
256 | CGKV | ≤ 0.2
257 | IHTR | ≤ 0.2
258 | DVPG | ≤ 0.2
259 | TENN | ≤ 0.2
260 | GTDC | ≤ 0.2
261 | NVIT | ≤ 0.2
262 | NCVL | ≤ 0.2
263 | RMIS | 0.238
264 | IDSC | ≤ 0.2

Row | Variant | one-hybrid fitness for binding NBS DNA
265 | TCNM | ≤ 0.2
266 | WGGV | ≤ 0.2
267 | ITYC | ≤ 0.2
268 | YTTM | ≤ 0.2
269 | MRHR | ≤ 0.2
270 | RCWV | ≤ 0.2
271 | DQAG | ≤ 0.2
272 | TSGL | ≤ 0.2
273 | PGYP | ≤ 0.2
274 | PAYV | ≤ 0.2
275 | ADQI | ≤ 0.2
276 | RVLH | ≤ 0.2
277 | LFYG | ≤ 0.2
278 | ASIF | ≤ 0.2
279 | VTFT | ≤ 0.2
280 | DLEE | ≤ 0.2
281 | TQLI | ≤ 0.2
282 | KCCR | ≤ 0.2
283 | TVWC | ≤ 0.2
284 | RCDP | ≤ 0.2
285 | MNQG | ≤ 0.2
286 | AKFG | ≤ 0.2
287 | HNFP | ≤ 0.2
288 | FYST | ≤ 0.2

Row | Variant | one-hybrid fitness for binding NBS DNA
289 | PVKL | ≤ 0.2
290 | CRGY | ≤ 0.2
291 | WYDR | ≤ 0.2
292 | SSKC | ≤ 0.2
293 | CCPV | ≤ 0.2
294 | NSPN | ≤ 0.2
295 | DITK | ≤ 0.2
296 | LKMT | ≤ 0.2
297 | KGNF | ≤ 0.2
298 | LHQP | ≤ 0.2
299 | RQVY | ≤ 0.2
300 | PTAP | ≤ 0.2
301 | CFGR | ≤ 0.2
302 | QMLA | 0.22
303 | RMTM | ≤ 0.2
304 | TLMC | ≤ 0.2
305 | GNLC | ≤ 0.2
306 | QATK | ≤ 0.2
